# Results reported in PMC4336329 (PLoS ONE, 2015).
# Out of some 310,000 compounds screened, about 2,200 (0.71%) showed an effect of 50% or more. Effects have a minus sign here. Some of the results follow.
# Molecular target: human ether-à-go-go-related gene (hERG) potassium channel (human, UniProt Q12809)
# Test: primary screen, population patch clamp on CHO cells stably expressing hERG
# Sequence of human ether-à-go-go-related gene (hERG) potassium channel (Q12809 whole entry, looked up): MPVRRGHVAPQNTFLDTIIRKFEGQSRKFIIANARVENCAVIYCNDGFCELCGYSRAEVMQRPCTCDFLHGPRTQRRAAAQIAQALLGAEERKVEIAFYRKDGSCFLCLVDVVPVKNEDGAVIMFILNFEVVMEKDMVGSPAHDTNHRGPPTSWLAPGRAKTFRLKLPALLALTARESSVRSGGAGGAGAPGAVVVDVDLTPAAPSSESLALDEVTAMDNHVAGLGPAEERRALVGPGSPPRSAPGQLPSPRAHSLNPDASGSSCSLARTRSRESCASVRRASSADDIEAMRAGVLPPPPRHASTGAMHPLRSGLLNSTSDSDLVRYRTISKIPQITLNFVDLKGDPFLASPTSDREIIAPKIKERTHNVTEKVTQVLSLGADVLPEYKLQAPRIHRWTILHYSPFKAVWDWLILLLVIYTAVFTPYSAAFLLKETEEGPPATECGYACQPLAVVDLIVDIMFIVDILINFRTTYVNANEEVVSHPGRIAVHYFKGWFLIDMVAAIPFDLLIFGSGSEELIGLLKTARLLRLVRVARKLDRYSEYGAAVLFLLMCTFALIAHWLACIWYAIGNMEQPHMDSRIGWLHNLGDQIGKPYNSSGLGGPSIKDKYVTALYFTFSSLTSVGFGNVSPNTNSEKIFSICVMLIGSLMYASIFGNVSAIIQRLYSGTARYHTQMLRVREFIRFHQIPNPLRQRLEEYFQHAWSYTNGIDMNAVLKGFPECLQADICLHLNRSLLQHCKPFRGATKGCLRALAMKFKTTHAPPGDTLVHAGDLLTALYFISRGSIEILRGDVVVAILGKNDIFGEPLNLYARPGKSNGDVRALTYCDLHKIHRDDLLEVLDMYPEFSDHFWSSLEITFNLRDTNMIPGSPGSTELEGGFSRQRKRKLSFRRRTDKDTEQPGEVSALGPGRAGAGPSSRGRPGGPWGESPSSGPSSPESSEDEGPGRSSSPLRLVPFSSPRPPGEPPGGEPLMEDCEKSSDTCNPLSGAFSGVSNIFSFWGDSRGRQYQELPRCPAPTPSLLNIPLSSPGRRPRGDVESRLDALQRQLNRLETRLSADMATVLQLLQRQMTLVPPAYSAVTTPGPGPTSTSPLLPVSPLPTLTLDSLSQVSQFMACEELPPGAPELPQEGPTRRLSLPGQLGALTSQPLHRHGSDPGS
row,Compound,"hERG current change (%, negative = inhibition) at 1uM [%]"
1,CCC(C)c1nc2c(c(N3CCC3=O)c1-c1ccccc1)CCCC2 (stereo not shown),5
2,CC(C)n1c(CSCc2ccc(Cl)cc2Cl)n[nH]c1=S,5.17
3,Clc1cccc(Cl)c1COc1ccncc1,10.6
4,COc1ccc(CC(=O)N(C)Cc2cccc(OC)c2OC)cc1S(=O)(=O)N1CCOCC1,1.78
5,O=C(c1cccc(Cl)c1)N1CCCC(c2ccc(Cl)cc2)=N1,24.6
6,COc1ccc(C2=CC(=O)CC(c3ccccc3)C2)cc1 (stereo not shown),26.8
7,OCCC1CN(Cc2ccc(C(F)(F)F)cc2)CCN1Cc1ccccc1 (stereo not shown),-10.6
8,CN1C(N)=NC(=O)/C1=C\c1ccc(Br)cc1,15
9,Cc1cccc(N2CCN(S(=O)(=O)c3ccc(-c4coc(C)n4)cc3)CC2C)c1 (stereo not shown),8.13
10,COC(=O)C1=CN(CC2CCCO2)C=C(C(=O)OC)C1c1cccc(O)c1 (stereo not shown),3.32
11,CCCCSc1nc(O)c(Cc2ccccc2)c(=O)[nH]1,5.56
12,Fc1ccc(NCc2nnc(SCc3nnc(-c4ccccc4)o3)n2CC2CCCO2)cc1 (stereo not shown),-28.3
13,COc1ccc(C(=O)/C=C/c2ccc3c(c2)OCCO3)cc1,18.7
14,CCOC(=O)C(NC(=O)c1ccccc1)(OCc1ccc(F)cc1)C(F)(F)F (stereo not shown),9.79
15,CC1(C(=O)NC2CCCCCCC2)CCC(=O)N1CCN1CCOCC1 (stereo not shown),15.6
16,CCOCCc1nnc(NC(=O)CCc2ccccc2)s1,13.8
17,CCOC(=O)C1(C)/C(=N/Nc2ccc(Cl)cc2)C(=O)C(=O)N1c1ccccc1 (stereo not shown),2.83
18,CCCOc1ccc(N2C(=O)CC(SC(=NCC)Nc3cccc(F)c3)C2=O)cc1 (stereo not shown),9.67
19,COc1ccc(NC(=O)C2CCCN2S(=O)(=O)c2cccs2)c([N+](=O)[O-])c1 (stereo not shown),2.01
20,CCn1c(=O)c2ccccc2n2c(SCC(N)=O)nnc12,14.1
21,CCOc1ccc(OCCC(=O)OCC(=O)NNC(=O)c2ccccc2)cc1,16.3
22,CC(OC(=O)c1cccs1)C(=O)NCc1ccc2c(c1)OCO2 (stereo not shown),18.6
23,Cc1ccnc(NC(=O)c2ccc3c(c2)C(=O)N(CCC(C)C)C3=O)c1,13.2
24,CN(C)S(=O)(=O)c1cccc(C(=O)OCC(=O)Nc2ccc3c(c2)OCCO3)c1,15.7
25,Cc1nc2c(C)cccc2cc1C(=O)N/N=C/c1ccc(N(C)C)cc1,-4.58
